Reference: patent US20200085917A1 (UNIVERSITY OF PITTSBURGH OF THE COMMONWEALTH SYSTEM OF …, published 2020)

Legend:
Assay in all cases: GST pull-down, LC-MS/MS
Afg3l2_IPI:IPI00170357.5 = Afg3l2_IPI:IPI00170357.5 (mouse, UniProt Q8JZQ2 67-802)
Pnkd_IPI:IPI00187405.4 = target: T1, Pnkd_IPI:IPI00187405.4 (mouse, UniProt Q69ZP3 1-385, limits assumed)
T1 sequence (looked up): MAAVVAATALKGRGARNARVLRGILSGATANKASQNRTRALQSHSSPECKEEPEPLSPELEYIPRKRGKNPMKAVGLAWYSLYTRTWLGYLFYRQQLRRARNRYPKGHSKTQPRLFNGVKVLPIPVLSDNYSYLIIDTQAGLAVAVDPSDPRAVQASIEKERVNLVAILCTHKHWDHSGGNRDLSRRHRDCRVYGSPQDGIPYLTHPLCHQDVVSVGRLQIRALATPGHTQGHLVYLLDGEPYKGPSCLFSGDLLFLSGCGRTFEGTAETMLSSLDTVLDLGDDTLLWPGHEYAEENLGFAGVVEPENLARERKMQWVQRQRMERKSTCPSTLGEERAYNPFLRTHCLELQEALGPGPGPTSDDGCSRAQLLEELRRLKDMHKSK

Gnao1_IPI:IPI00115546.4 = Gnao1_IPI:IPI00115546.4 (mouse, UniProt P18872 2-354, limits assumed)

Measured: binding result

Gnao1_IPI:IPI00115546.4, sequence (P18872 2-354 limits assumed): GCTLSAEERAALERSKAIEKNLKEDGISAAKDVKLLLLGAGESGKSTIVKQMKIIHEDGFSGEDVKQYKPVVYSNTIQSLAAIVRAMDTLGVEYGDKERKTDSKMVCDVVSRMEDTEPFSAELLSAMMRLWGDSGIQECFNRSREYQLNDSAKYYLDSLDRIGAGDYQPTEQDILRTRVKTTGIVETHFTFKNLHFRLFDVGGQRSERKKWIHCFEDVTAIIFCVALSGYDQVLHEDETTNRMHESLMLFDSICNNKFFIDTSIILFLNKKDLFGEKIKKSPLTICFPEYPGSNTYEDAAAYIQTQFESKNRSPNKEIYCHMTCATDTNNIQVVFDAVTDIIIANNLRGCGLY
Afg3l2_IPI:IPI00170357.5, sequence (Q8JZQ2 67-802 limits assumed): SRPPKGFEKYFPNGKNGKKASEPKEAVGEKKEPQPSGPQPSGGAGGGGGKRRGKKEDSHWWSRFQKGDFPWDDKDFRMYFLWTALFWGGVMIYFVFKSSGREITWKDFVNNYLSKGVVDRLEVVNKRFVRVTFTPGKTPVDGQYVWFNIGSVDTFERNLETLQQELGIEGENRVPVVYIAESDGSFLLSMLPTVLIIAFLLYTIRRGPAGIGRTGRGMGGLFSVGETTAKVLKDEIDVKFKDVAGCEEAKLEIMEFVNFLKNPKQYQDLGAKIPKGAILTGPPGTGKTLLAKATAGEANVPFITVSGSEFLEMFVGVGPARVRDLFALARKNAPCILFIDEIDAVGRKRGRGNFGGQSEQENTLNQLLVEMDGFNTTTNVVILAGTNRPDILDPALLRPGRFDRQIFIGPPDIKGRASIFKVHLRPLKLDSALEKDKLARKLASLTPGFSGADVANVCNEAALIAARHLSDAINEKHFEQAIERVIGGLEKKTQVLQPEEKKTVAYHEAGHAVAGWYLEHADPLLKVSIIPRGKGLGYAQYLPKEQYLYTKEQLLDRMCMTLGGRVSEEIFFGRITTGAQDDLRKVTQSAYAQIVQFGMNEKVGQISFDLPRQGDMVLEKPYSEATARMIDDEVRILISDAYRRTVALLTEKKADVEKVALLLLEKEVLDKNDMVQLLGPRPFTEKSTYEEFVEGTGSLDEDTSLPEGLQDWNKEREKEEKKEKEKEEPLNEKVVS

B1: GST alone (other)
chain: not shown
notes: Negative control of the pull-downs; also called control GST
no binding: all assays above
